# Measurements as given in publication PMC4336329 (PLoS ONE, 2015).
# Out of some 310,000 compounds screened, about 14,000 (4.5%) showed an effect of 50% or more. The effect is printed as a negative number. This is one part of the list.
# Target: human ether-à-go-go-related gene (hERG) potassium channel (human, UniProt Q12809)
# Assay: primary screen, population patch clamp on CHO cells stably expressing hERG
# 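Also: peak tail current of the secondary pulse compared with the same well before compound.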
# human ether-à-go-go-related gene (hERG) potassium channel, sequence (Q12809 whole entry, looked up): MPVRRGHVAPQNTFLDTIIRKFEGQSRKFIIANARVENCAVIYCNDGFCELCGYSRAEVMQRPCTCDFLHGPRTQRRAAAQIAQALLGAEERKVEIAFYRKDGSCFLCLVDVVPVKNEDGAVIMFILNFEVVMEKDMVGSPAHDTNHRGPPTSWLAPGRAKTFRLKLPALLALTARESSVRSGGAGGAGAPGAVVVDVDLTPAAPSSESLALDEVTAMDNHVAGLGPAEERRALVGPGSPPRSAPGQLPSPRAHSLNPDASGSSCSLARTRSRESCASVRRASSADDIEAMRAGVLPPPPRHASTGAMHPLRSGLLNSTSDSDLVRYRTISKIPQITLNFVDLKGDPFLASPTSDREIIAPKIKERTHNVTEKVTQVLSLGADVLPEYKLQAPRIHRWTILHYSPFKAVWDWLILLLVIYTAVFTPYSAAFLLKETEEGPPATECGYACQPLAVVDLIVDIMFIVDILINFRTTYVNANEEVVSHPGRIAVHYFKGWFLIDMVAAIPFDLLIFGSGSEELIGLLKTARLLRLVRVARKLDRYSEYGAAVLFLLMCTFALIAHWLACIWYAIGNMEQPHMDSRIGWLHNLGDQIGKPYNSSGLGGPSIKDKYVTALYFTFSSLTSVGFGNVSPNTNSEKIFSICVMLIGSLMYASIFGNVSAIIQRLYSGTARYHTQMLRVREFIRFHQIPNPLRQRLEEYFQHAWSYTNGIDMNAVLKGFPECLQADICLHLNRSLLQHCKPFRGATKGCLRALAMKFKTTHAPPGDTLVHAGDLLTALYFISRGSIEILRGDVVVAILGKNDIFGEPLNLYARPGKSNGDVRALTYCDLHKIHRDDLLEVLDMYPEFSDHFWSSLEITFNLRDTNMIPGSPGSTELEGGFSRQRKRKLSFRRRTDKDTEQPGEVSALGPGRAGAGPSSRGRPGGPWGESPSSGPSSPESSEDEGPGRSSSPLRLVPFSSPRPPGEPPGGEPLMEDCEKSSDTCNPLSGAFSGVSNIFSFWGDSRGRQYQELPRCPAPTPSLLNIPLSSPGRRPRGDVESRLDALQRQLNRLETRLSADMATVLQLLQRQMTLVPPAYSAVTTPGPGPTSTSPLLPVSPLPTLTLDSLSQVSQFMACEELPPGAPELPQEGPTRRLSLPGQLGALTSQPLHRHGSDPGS
row,Structure (SMILES),"hERG current change (%, negative = inhibition) at 10uM [%]"
1,COc1ccc2oc(C(=O)N(C)Cc3ccc(OC(F)F)cc3)c(C)c2c1,-53.8
2,CCCc1cc(=O)n2[nH]c(-c3ccc(Cl)cc3)cc2n1,-11.6
3,O=C(c1cccs1)N(Cc1cc2ccccc2[nH]c1=O)CC1CCCO1 (stereo not shown),-9.66
4,Cc1nn(C)c2ncc(C(=O)c3cc(F)ccc3O)cc12,9.01
5,O=C1CC(c2ccccc2)=NN1c1ccc([N+](=O)[O-])cc1,19.6
6,O=C(CSc1nnc(-c2ccco2)o1)N1CCN(c2ccccc2)CC1,11.5
7,CCc1nnc(NC(=O)c2c(C)nn(-c3ccccc3)c2Cl)s1,17.8
8,COc1cccc(N2CC(O)=C(c3nc4ccccc4c(=O)[nH]3)C2=N)c1,-0.385
9,COc1ccc(OC)c2c1nc1n2CCS1,-6.87
10,COc1cc(OC)c(NC(=S)Nc2cccc(C)c2)cc1Cl,10.3
11,O=c1c2ccccc2nc(-c2ccco2)n1-c1nccs1,-17.1
12,Clc1ccc(/C=N/Nc2nc(Cl)nc3ccccc23)cc1,25
13,COc1cc(C(=O)NC(=S)NNC(=O)[C@H]2C[C@@H]2c2ccccc2)cc(OC)c1OC,17.3
14,Cc1c(-c2nc(-c3ccc(C(C)(C)C)cc3)no2)n(C)oc1=O,14.4
15,COc1ccc(CNC(=O)C(OC(=O)c2ccco2)c2ccc(F)cc2)cc1 (stereo not shown),-11.5
16,COC(=O)C1=C(C)N(C)C(C)=C(C(=O)OC)C1c1ccc(Cl)cc1,17.7
17,COc1ccccc1NC(CC(=O)c1ccccc1)C(=O)OCC(=O)c1ccc(F)cc1 (stereo not shown),-14.3
18,Cc1n[nH]c(C)c1CN(C)C(=O)C1CCC(=O)N(CCc2cccc(F)c2)C1 (stereo not shown),5.51
19,CCC1CCCCN1CCn1c(=S)[nH]c2cc(OC)c(OC)cc2c1=O (stereo not shown),-25.4
20,CC(C)(C)c1nc(SCC(=O)N2CCCC2)c2ccccc2n1,12.2
21,O=C(COC(=O)c1cccc([N+](=O)[O-])c1)NC1CCCC1,13.1
22,CCOC(=O)N1CCN(C(=O)c2ccc(NC(C)=O)cc2)CC1,10.1
23,COc1ccc(OCCOCCN2CCc3ccccc3C2)cc1,-69.9
24,CC(C)(C)NCc1cc(Br)ccc1OC1CCCC1.Cl,-53.8
25,Cc1cc(-c2nnc3n2N=C(c2ccc(-c4ccccc4)cc2)CS3)n[nH]1,-15.7
